Data taken from the supplement of paper PMC12217912.
Some of the results follow. The full chains were built here from the parent and the listed change. Inactive controls read about 0.05.

B1: TEV protease; numbered along this chain (parent)
chain: MGESLFKGPRDYNPISSSICHLTNESDGHTTSLYGIGFGPFIITNKHLFRRNNGTLVVQSLHGVFKVKDTTTLQQHLVDGRDMIIIRMPKDFPPFPQKLKFREPQREERICLVTTNFQTKSMSSMVSDTSCTFPSGDGIFWKHWIQTKDGQCGSPLVSTRDGFIVGIHSASNFTNTNNYFTSVPKNFMELLTNQEAQQWVSGWRLNADSVLWGGHKVFMVKPEEPFQPVKEATQL

Variants of: B1
Assay: raw area under fraction-flipped curve 0-4 h after induction (AUC4h, not background-subtracted), DNA-recorder readout of cleavage of the substrate (dimensionless); higher = more cleavage of the substrate by the protease variant
Conditions: temperature: 34 °C; time window: 0-4 h after rhamnose induction
Procedure: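 In vivo DNA recorder in E. coli TOP10(DE3) ΔrhaA at 34 °C. Each TEVp single-site mutant (parent TEVp 0) is paired with a single-site variant of the 7-mer TEVs (canonical ENLYFQ|S). The substrate sits between flexible linkers in a Bxb1-sfGFP-TEVs-SsrA fusion, so cleavage stabilises Bxb1 and speeds flipping of a recombination array, read by NGS. The value is the raw area under the fraction-flipped curve over 0-4 h after rhamnose induction (AUC4h), with ≥20 reads per time point. It is not background-subtracted; inactive controls average about 0.047.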
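Further: Bxb1 expression induced with 0.2% (w/v) L-rhamnose at OD600 near 0.5, cultures sampled hourly, flipped fraction per protease–substrate barcode pair counted by paired-end Illumina sequencing.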

Variant | area with substrate ENLYFAS | area with substrate ENLYFCS | area with substrate ENLYFDS | area with substrate ENLYFES | area with substrate ENLYFFS | area with substrate ENLYFGS | area with substrate ENLYFHS | area with substrate ENLYFIS | area with substrate ENLYFKS | area with substrate ENLYFMS | area with substrate ENLYFNS | area with substrate ENLYFPS | area with substrate ENLYFRS | area with substrate ENLYFTS | area with substrate ENLYFWS | area with substrate ENLYFLS | area with substrate ENLYFVS | area with substrate ENLYFYS | area with substrate ENLYFSS
MGESLFKGPRDYNPISSSICHLTNESDGHTTSLYGIGFGPFIITNKHLFRRNNGTLVVQSLHGVFKVKDTTTLQQHLVDGRDMIIIRMPKDFPPFPQKLKFREPQREERICLVTTNFQTKSMSSMVSDTSCTFPSGDGIFWKHWIQTKDGQCGSPLMSTRDGFIVGIHSASNFTNTNNYFTSVPKNFMELLTNQEAQQWVSGWRLNADSVLWGGHKVFMVKPEEPFQPVKEATQL [V157M] | 0.0692 | 0.0601 | 0.0756 | 0.056 | 0.0628 | 0.051 | 0.0799 | 0.0613 | 0.0404 | 0.0664 | 0.0535 | 0.0594 | 0.0528 | 0.0458 | 0.0592 | – | – | – | –
MGESLFKGPRDYNPISSSICHLTNESDGHTTSLYGIGFGPFIITNKHLFRRNNGTLVVQSLHGVFKVKDTTTLQQHLVDGRDMIIIRMPKDFPPFPQKLKFREPQREERICLVTTNFQTKSMSSMVSDTSCTFPSGDGIFWKHWIQTKDGQCGSPLVMTRDGFIVGIHSASNFTNTNNYFTSVPKNFMELLTNQEAQQWVSGWRLNADSVLWGGHKVFMVKPEEPFQPVKEATQL [S158M] | 0.0577 | 0.058 | – | 0.0607 | 0.0707 | – | 0.0539 | 0.0534 | – | 0.045 | 0.094 | 0.0654 | 0.0449 | – | 0.0489 | 0.0596 | 0.0586 | 0.0439 | –
MGESLFKGPRDYNPISSSICHLTNESDGHTTSLYGIGFGPFIITNKHLFRRNNGTLVVQSLHGVFKVKDTTTLQQHLVDGRDMIIIRMPKDFPPFPQKLKFREPQREERICLVTTNFQTKSMSSMVSDTSCTFPSGDGIFWKHWIQTKDGQCGSPLVWTRDGFIVGIHSASNFTNTNNYFTSVPKNFMELLTNQEAQQWVSGWRLNADSVLWGGHKVFMVKPEEPFQPVKEATQL [S158W] | 0.0566 | 0.0444 | 0.0383 | 0.0518 | 0.0622 | 0.0506 | 0.051 | 0.0496 | 0.0388 | 0.0505 | 0.0392 | 0.0473 | 0.0519 | 0.0503 | 0.0501 | – | 0.0515 | 0.0427 | 0.0365
MGESLFKGPRDYNPISSSICHLTNESDGHTTSLYGIGFGPFIITNKHLFRRNNGTLVVQSLHGVFKVKDTTTLQQHLVDGRDMIIIRMPKDFPPFPQKLKFREPQREERICLVTTNFQTKSMSSMVSDTSCTFPSGDGIFWKHWIQTKDGQCGSPLVSTRDGFSVGIHSASNFTNTNNYFTSVPKNFMELLTNQEAQQWVSGWRLNADSVLWGGHKVFMVKPEEPFQPVKEATQL [I164S] | 0.059 | 0.0356 | – | 0.0524 | 0.0534 | 0.0497 | 0.0594 | 0.0538 | 0.0552 | 0.059 | 0.0475 | – | – | 0.0576 | 0.0636 | 0.0485 | 0.0573 | 0.0777 | 0.0473
MGESLFKGPRDYNPISSSICHLTNESDGHTTSLYGIGFGPFIITNKHLFRRNNGTLVVQSLHGVFKVKDTTTLQQHLVDGRDMIIIRMPKDFPPFPQKLKFREPQREERICLVTTNFQTKSMSSMVSDTSCTFPSGDGIFWKHWIQTKDGQCGSPLVSTRDGFIVGHHSASNFTNTNNYFTSVPKNFMELLTNQEAQQWVSGWRLNADSVLWGGHKVFMVKPEEPFQPVKEATQL [I167H] | 0.0761 | 0.0535 | 0.0266 | – | 0.0672 | – | – | – | – | 0.0456 | 0.0593 | 0.0443 | 0.0539 | – | – | – | – | – | –
MGESLFKGPRDYNPISSSICHLTNESDGHTTSLYGIGFGPFIITNKHLFRRNNGTLVVQSLHGVFKVKDTTTLQQHLVDGRDMIIIRMPKDFPPFPQKLKFREPQREERICLVTTNFQTKSMSSMVSDTSCTFPSGDGIFWKHWIQTKDGQCGSPLVSTRDGFIVGNHSASNFTNTNNYFTSVPKNFMELLTNQEAQQWVSGWRLNADSVLWGGHKVFMVKPEEPFQPVKEATQL [I167N] | 0.045 | 0.0557 | 0.0586 | 0.0616 | – | 0.0555 | 0.0492 | 0.045 | 0.0448 | 0.0515 | 0.0472 | 0.0538 | 0.0521 | 0.0504 | 0.0485 | – | 0.0561 | 0.0478 | 0.0637
MGESLFKGPRDYNPISSSICHLTNESDGHTTSLYGIGFGPFIITNKHLFRRNNGTLVVQSLHGVFKVKDTTTLQQHLVDGRDMIIIRMPKDFPPFPQKLKFREPQREERICLVTTNFQTKSMSSMVSDTSCTFPSGDGIFWKHWIQTKDGQCGSPLVSTRDGFIVGIHGASNFTNTNNYFTSVPKNFMELLTNQEAQQWVSGWRLNADSVLWGGHKVFMVKPEEPFQPVKEATQL [S169G] | 0.0465 | 0.0614 | – | 0.06 | 0.0776 | – | 0.0607 | 0.0518 | 0.0649 | 0.0472 | 0.0504 | 0.0749 | 0.0589 | 0.0566 | 0.0477 | – | 0.0563 | – | 0.0572
MGESLFKGPRDYNPISSSICHLTNESDGHTTSLYGIGFGPFIITNKHLFRRNNGTLVVQSLHGVFKVKDTTTLQQHLVDGRDMIIIRMPKDFPPFPQKLKFREPQREERICLVTTNFQTKSMSSMVSDTSCTFPSGDGIFWKHWIQTKDGQCGSPLVSTRDGFIVGIHQASNFTNTNNYFTSVPKNFMELLTNQEAQQWVSGWRLNADSVLWGGHKVFMVKPEEPFQPVKEATQL [S169Q] | 0.0532 | – | 0.0705 | 0.051 | 0.0711 | 0.0822 | 0.0572 | 0.053 | 0.0581 | 0.0548 | 0.0568 | 0.0594 | 0.0592 | 0.0539 | 0.058 | 0.0573 | 0.0543 | 0.0068 | 0.0583
